In PubChem BioAssay AID504832 (National Center for Advancing Translational Sciences (NCATS), 2011):
Hit rate of the full screen: of about 310,000 compounds, about 18,000 (5.8%) were called active. Inconclusive means that the source gave no clear call. Such entries were picked first, then a sample of the others. Calls come from the whole dose curve; as a rule, active = well fitted inhibition curve with a large enough effect; inconclusive = small, poorly fitted or top-dose-only effect, or another doubt; inactive = no such curve, though single readings can be large or run the other way. No potency is given beside an inconclusive call; the fits are too rough.

assay: Primary qHTS for delayed death inhibitors of the malarial parasite plastid, 48 hour incubation; details: P. falciparum luciferase growth in erythrocytes; series mostly up to 28.7 µM; activity change, negative = inhibition: at the top concentration
Outline: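 Erythrocytes infected with P. falciparum carrying an integrated firefly luciferase reporter (2% hematocrit, 0.1% parasitemia final) were exposed to compounds in RPMI 1640 with 0.5% Albumax at 37 C, 5% CO2. Growth inhibition was scored as reduced luminescence.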
% is set by controls: 0 for no effect and ±100 for the full control effect; potency is the fitted concentration of half-maximal effect; tags give direction and shape of the fitted curve.

Row | SMILES | activity change, negative = inhibition | Potency
1 | COc1ccc2[nH]c(CN3CCC(n4nccc4NC(=O)C4CC4)CC3)c(C)c2c1 | inactive: 35% | –
2 | COc1cccc(CNS(=O)(=O)c2cc3c(cc2C)NC(=O)CO3)c1 | inactive: 13.4% | –
3 | O=c1oc2ccccc2c2c1C1O[C@](c3ccsc3)(Cc3ccccc31)O2 | – | active: 1.69 µM
4 | CC(C)n1c2ccccc2c2nc3ccccc3nc21 | – | inconclusive [inhibitor, single point]
5 | Cc1ccc(NC(=S)NC2CCN(Cc3ccccc3)CC2)c(C)c1 | – | inconclusive [inhibitor, partial curve]
6 | Cc1ncc(CO)c(CNc2ccc(-c3nc4ccccc4[nH]3)cc2)c1O | – | inconclusive [inhibitor, full curve, poor fit]
7 | O=C(Cn1c(CO)nc2ccccc21)NCc1ccc2c(c1)OCO2 | inactive: 0.157% | –
8 | CCc1ccc(CN(C)C(=O)CCc2nnc(-c3ccc(-c4ccccc4)cc3)o2)nc1 | – | inconclusive [inhibitor, partial curve]
9 | Cc1ccccc1N=C1SCCN1C(=O)CN1C(=O)NC2(CCCC2)C1=O | – | inconclusive [inhibitor, single point]
10 | O=C(Nc1ncn[nH]1)c1ccc(Cl)c(Cl)c1 | inactive: -4.38% | –
11 | CCCc1nc(SCC(=O)N2CCC(Cc3ccccc3)CC2)c2c(=O)n(C)c(=O)n(C)c2n1 | – | inconclusive [inhibitor, single point]
12 | CCCCn1c(N2CCC(Cc3ccccc3)CC2)nc2c1c(=O)[nH]c(=O)n2C | – | active: 9.28 µM
13 | CCCn1cc(CN2CCC(C(=O)Nc3cccc(-c4cscn4)c3)CC2)c(C)n1 | – | inconclusive [inhibitor, single point]
14 | COc1ccccc1CNC(=O)/C(C#N)=C/c1ccc(OC)c(OC)c1OC | – | inconclusive [inhibitor, single point]
15 | S=c1[nH]nc(-c2ccccc2)o1 | inactive: 13.8% | –
16 | O=C(O)c1ccccc1Oc1ccc(Oc2ccccc2)cc1 | inactive: -0.372% | –
17 | CC(=O)Nc1ccc(NC(=O)COC(=O)c2c(-c3ccccc3)noc2C)cc1 | – | inconclusive [inhibitor, single point]
18 | C=C(C)CN(CC)C(=O)CC1C(=O)NCCN1C (stereo not drawn) | inactive: 11.2% | –
19 | CCOC(=O)Cc1csc(NC(=O)c2ccc(Cl)nc2)n1 | – | inconclusive [inhibitor, partial curve, poor fit]
20 | C/C(N)=C(/C#N)C(=O)COC(=O)c1ccccc1C(=O)c1ccc(C)cc1 | inactive: -3.29% | –
21 | Cc1ccn2c(NCc3ccccc3)c(-c3cccs3)nc2c1 | – | inconclusive [inhibitor, single point]
22 | COc1ccc(CCN(CC(=O)NC2CCCC2)C(=O)Cn2nnc(-c3ccc(C)o3)n2)cc1OC | inactive: 0% | –
23 | COc1cccc(COC(=O)c2ccc3c(=O)n4c(nc3c2)CCC4)c1OC | – | active: 13.1 µM
24 | COc1ccc2nc(Nc3nc4ccc(NC(C)=O)cc4s3)sc2c1 | – | inconclusive [inhibitor, single point]
25 | O=C(c1ccc(Cl)cc1)N1N=C(c2ccccn2)CC1(O)C(F)(F)F (stereo not drawn) | – | active: 4.65 µM

Row | SMILES | activity change, negative = inhibition | Potency
26 | CCC(C(=O)N1CCN(S(=O)(=O)c2ccc(F)cc2)CC1)c1ccccc1 (stereo not drawn) | – | inconclusive [inhibitor, single point]
27 | COc1ccc(-c2cc(C(=O)c3c(N)n(C)c(=O)n(C)c3=O)c3ccccc3n2)cc1 | – | inconclusive [inhibitor, single point]
28 | Cc1cccc2sc(NNC(=O)c3ccc(S(=O)(=O)N4CCc5ccccc5C4)cc3)nc12 | – | inconclusive [inhibitor, partial curve, poor fit]
29 | CCSc1cc(N2CC(C)OC(C)C2)nc(-c2ccccc2Cl)n1 (stereo not drawn) | – | active: 2.08 µM
30 | COc1ccc2c(c1)CCC(C)N2C(=O)C(=O)c1c[nH]c2ccccc12 (stereo not drawn) | inactive: 0% | –
31 | O=C(CCl)NC(Cc1ccccc1)c1ccccc1 (stereo not drawn) | – | inconclusive [inhibitor, partial curve, poor fit]
32 | COc1ccc(Cn2nnnc2CN2CCc3ccccc32)cc1 | inactive: -18.3% | –
33 | CCc1nn(CCCC(=O)NCc2cc(Br)ccc2OC)c(=O)c2cc3occc3n12 | – | inconclusive [inhibitor, partial curve, poor fit]
34 | COc1ccc(Cc2nn3c(-c4ccccc4OC)nnc3s2)cc1 | – | active: 9.28 µM
35 | COC(=O)N/N=C/c1ccc([N+](=O)[O-])o1 | – | active: 13.1 µM
36 | O=[N+]([O-])c1ccc(/C=N/Nc2cc(Cl)nc(-c3ccccc3)n2)cc1 | – | inconclusive [inhibitor, full curve, poor fit]
37 | O=C1N/C(=N\S(=O)(=O)Cc2ccccc2)S/C1=C/c1cccc([N+](=O)[O-])c1 | – | inconclusive [inhibitor, full curve, poor fit]
38 | O=C(Cc1c(F)cccc1Cl)NNC(=O)c1ccncc1 | inactive: -7.34% | –
39 | COC(=O)C1=C(c2ccccc2OCc2ccccc2)C[C@@H]2CC[C@H]1N2C(=O)NC1CCN(Cc2ccccc2)CC1 | – | active: 13.1 µM
40 | S=c1[nH]nc(COc2ccccc2)n1/N=C/c1cccnc1 | inactive: -6.28% | –
41 | COc1cccc(C2CC(c3cccs3)=NN2C(=O)CSC2=NN3CCCC(=O)N=C3S2)c1OC (stereo not drawn) | – | active: 7.38 µM
42 | CCOc1ccc(S(=O)(=O)N2CCC(C(=O)NC3CCCC3)CC2)cc1 | – | inconclusive [inhibitor, partial curve]
43 | CS(=O)(=O)Cc1nc2ccccc2oc1=O | – | inconclusive [inhibitor, single point]
44 | COc1cc(OC)cc(C(=O)NC(C(=O)Nc2ccc3c(c2)OCO3)C(C)C)c1 (stereo not drawn) | – | inconclusive [inhibitor, single point]
45 | CCCc1nc(SCc2cccnc2)c2c(=O)n(C)c(=O)n(C)c2n1 | – | active: 13.1 µM
46 | Cc1nc(N2CCc3ccccc3C2)[nH]c(=O)c1Cc1ccccc1 | inactive: 0% | –
47 | COc1cc(/C=N/NC(=O)NC23CC4CC(CC(C4)C2)C3)ccc1OCC(N)=O | – | active: 9.28 µM
48 | COC(=O)c1ccc(C(=O)N(Cc2ccccc2)c2ccccc2)cc1 | – | inconclusive [inhibitor, single point]
49 | CCC(C)N(C(=O)COC(=O)c1cc([N+](=O)[O-])ccc1N)C1CCS(=O)(=O)C1 (stereo not drawn) | inactive: -5.28% | –
50 | O=C(CSc1nnnn1C1CCCCC1)Nc1nc2c(s1)CCCC2 | – | inconclusive [inhibitor, single point]

Row | SMILES | activity change, negative = inhibition | Potency
51 | CSc1ccc(NC(=O)NCCCN2CCC(Cc3ccccc3)CC2)cc1 | – | active: 8.28 µM
52 | CC(=O)Nc1ccc(-c2nnc(SCC(=O)c3ccc4c(c3)Cc3ccccc3-4)n2C)cc1 | – | inconclusive [inhibitor, single point]
53 | Cc1c(C(=O)N2CCOCC2)sc(NC(=O)c2ccccc2F)c1C#N | inactive: 20.9% | –
54 | COc1ccc(CN2CCc3ccc(NC(=O)CCc4ccccc4OC)cc3C2)c(O)c1 | – | active: 2.08 µM
55 | Clc1cccc(Cl)c1/C=C/c1nc2ccccc2[nH]1 | – | inconclusive [inhibitor, single point]
56 | O=C(COC(=O)/C=C/c1ccc(C(F)(F)F)cc1)NCC1CCCO1 (stereo not drawn) | – | inconclusive [inhibitor, single point]
57 | CC(=O)c1c(N2CCN(Cc3ccccc3)CC2)[nH]c(-c2ccccc2)nc1=S | – | active: 4.65 µM
58 | CC(=O)c1ccc(OC(=O)COc2ccccc2)cc1 | inactive: 62.1% | –
59 | Cc1ccc(Cn2ccc(NC(=O)c3cc(-c4ccc(Cl)cc4)on3)n2)cc1 | inactive: 68.6% | –
60 | Cc1ccc(Cn2c(SCC(C)C)nc3c2c(=O)n(C)c(=O)n3C)cc1 | – | active: 3.7 µM
61 | CCOc1ccc(OCc2ccc(C(=O)N/N=C(\C)c3ccccn3)cc2)cc1 | – | active: 0.37 µM
62 | COc1ccc(N(C(=O)CNC(=O)c2cccs2)C(C(=O)NCC2CCCO2)c2ccc(OC)c(OC)c2)cc1 (stereo not drawn) | – | inconclusive [inhibitor, partial curve]
63 | CN(C)C(=O)c1ccc(Nc2nnc(-c3ccc(O)cc3)c3ccccc23)cc1 | – | inconclusive [inhibitor, single point]
64 | Cc1ccc(S(=O)(=O)N/N=C/c2ccc(C(=O)O)cc2)cc1 | inactive: 30.5% | –
65 | CCN(CC)CCNC(=O)c1cccc(NC(=O)C(=O)c2cc(Br)ccc2NC(C)=O)c1 | – | active: 10.4 µM
66 | COc1cccc(C(=O)NC2CC3CCCC(C2)N3CC(=O)Nc2ccccc2C(F)(F)F)c1 (stereo not drawn) | – | inconclusive [inhibitor, partial curve, poor fit]
67 | COc1ccc(CC(=O)Nc2nc3ccccc3s2)cc1S(=O)(=O)N1CCOCC1 | – | inconclusive [inhibitor, single point]
68 | CCOC(=O)c1c(NC(NC(C)=O)C(Cl)(Cl)Cl)sc2c1CCCC2 (stereo not drawn) | – | inconclusive [inhibitor, single point]
69 | Cc1cc2cc(CNC(=O)c3ccc4c(c3)OCO4)ccc2n1C | – | inconclusive [inhibitor, single point]
70 | CCOc1cc(CNCc2ccc(C(=O)O)cc2)ccc1OC | inactive: 8.34% | –
71 | COC(=O)[C@@]12CCCCN1[C@H](c1ccc(-c3ccc(F)cc3)c(OC)c1)[C@@H]1C(=O)N(C)C(=O)[C@@H]12 | – | active: 13.1 µM
72 | O=C(c1ccccc1Cc1ccccc1)N1CCN(S(=O)(=O)c2ccccc2[N+](=O)[O-])CC1 | – | inconclusive [inhibitor, partial curve]
73 | COCCn1c(SCC(=O)N(C)c2c(N)n(Cc3ccccc3)c(=O)[nH]c2=O)nnc1-c1cccc(C)c1 | inactive: -3.14% | –
